Data reported in paper PMC11995724, “Antibiotic target discovery by integrated phenotypic and activity-based profiling of electrophilic fragments” (Cell chemical biology, 2025).
The whole screen tested about 3,200 compounds, of which about 75 (2%) showed an effect of 50% or more. Some of the results follow.

Each compound was assayed on T1, S. aureus MSSA476. Conditions: relative growth, OD600, TSB; 25 µM; inhibitor.
T1 construct: MSSA476
Design: species or system S. aureus MSSA476 (TSB) or V. cholerae SAD30 (LB); 384-well bacterial growth screen at 25 uM, OD600 relative to DMSO control

Row | SMILES | % of control remaining [%]
1 | C=CC(=O)N1CCC(C(=O)NCCn2c(=O)[nH]c3ccccc32)CC1 [3-J03, N-[2-(2-oxo-2,3-dihydro-1H-1,3-benzodiazol-1-yl)ethyl]-1-(prop-2-enoyl)piperidine-4-carboxamide] | 114.584
2 | N#CCCN(C(=O)CCl)c1ccccc1 [6-I12, 2-chloro-N-(2-cyanoethyl)-N-phenylacetamide] | 108.244
3 | C=CC(=O)Nc1ccc(C(=O)NC2CC(C)(C)OC2=O)cc1 (centres unmarked) [3-B08, N-(5,5-dimethyl-2-oxooxolan-3-yl)-4-(prop-2-enamido)benzamide] | 93.3391
4 | COc1cc(NC(=O)CCl)c(OC)cc1Cl [5-C05, 2-chloro-N-(4-chloro-2,5-dimethoxyphenyl)acetamide] | 100.182
5 | C=CC(=O)NCc1cn([C@@H]2COC[C@H]2OC)nn1 [1-J17, N-({1-[(3R,4S)-4-methoxyoxolan-3-yl]-1H-1,2,3-triazol-4-yl}methyl)prop-2-enamide] | 115.341
6 | C=CC(=O)N(CC)CC(=O)N1CCCC(F)(F)C1 [2-G14, N-[2-(3,3-difluoropiperidin-1-yl)-2-oxoethyl]-N-ethylprop-2-enamide] | 112.446
7 | Cc1nnc(C(C)NC(=O)C(C)Cl)s1 (centres unmarked) [7-D11, 2-chloro-N-[1-(5-methyl-1,3,4-thiadiazol-2-yl)ethyl]propanamide] | 108.32
8 | Cn1cc(C=C(C#N)C(=O)N2CCCC2)c(-c2cc3ccccc3o2)n1 [9-D18, 3-[3-(1-benzofuran-2-yl)-1-methyl-1H-pyrazol-4-yl]-2-(pyrrolidine-1-carbonyl)prop-2-enenitrile] | 108.464
9 | Cc1ccc(-c2cc(NC(=O)CCl)n(-c3ccccc3)n2)cc1 [4-C06, 2-chloro-N-[3-(4-methylphenyl)-1-phenyl-1H-pyrazol-5-yl]acetamide] | 108.623
10 | O=C(CCl)N[C@H](CO)Cc1ccccc1 [6-G20, 2-chloro-N-[(2S)-1-hydroxy-3-phenylpropan-2-yl]acetamide] | 109.61
11 | O=C1NC(=O)c2cc(NC(=O)N3CCSSCC3)ccc21 [10-K22, N-(1,3-dioxo-2,3-dihydro-1H-isoindol-5-yl)-1,2,5-dithiazepane-5-carboxamide] | 93.4375
12 | C=CC(=O)NCC(C)Cn1ccc(C)n1 (centres unmarked) [2-D03, N-[2-methyl-3-(3-methyl-1H-pyrazol-1-yl)propyl]prop-2-enamide] | 98.1723
13 | CC(Cl)C(=O)Nc1ccc2c(c1)ncn2CCN(C)C (centres unmarked) [6-P15, 2-chloro-N-{1-[2-(dimethylamino)ethyl]-1H-1,3-benzodiazol-5-yl}propanamide] | 89.122
14 | C=CC(=O)NC1CCOC(c2cnn(C)c2)C1 (centres unmarked) [2-F07, N-[2-(1-methyl-1H-pyrazol-4-yl)oxan-4-yl]prop-2-enamide] | 105.135
15 | C=CC(=O)N1CCCC(Oc2ccnc(C(=O)NC)c2)C1 (centres unmarked) [2-L22, N-methyl-4-{[1-(prop-2-enoyl)piperidin-3-yl]oxy}pyridine-2-carboxamide] | 110.009
16 | CC(C1CC1)N(C(=O)CCl)C1CC1 (centres unmarked) [5-F12, 2-chloro-N-cyclopropyl-N-(1-cyclopropylethyl)acetamide] | 112.204
17 | COc1ccc(C=C(C#N)C(=O)Nc2cccc(C(F)(F)F)c2)cc1 [8-A03, 2-cyano-3-(4-methoxyphenyl)-N-[3-(trifluoromethyl)phenyl]prop-2-enamide] | 125.477
18 | N#CC(=Cc1cccc(Cl)c1Cl)C(N)=O [8-J21, 2-cyano-3-(2,3-dichlorophenyl)prop-2-enamide] | 105.56
19 | C=CC(=O)N1CCC(C(=O)Nc2ncc(CCO)s2)CC1 [2-A08, N-[5-(2-hydroxyethyl)-1,3-thiazol-2-yl]-1-(prop-2-enoyl)piperidine-4-carboxamide] | 166.754
20 | C=CC(=O)N1CCC(Cn2nc(C)cc2C)CC1 [2-C17, 1-{4-[(3,5-dimethyl-1H-pyrazol-1-yl)methyl]piperidin-1-yl}prop-2-en-1-one] | 100.957
21 | C=CC(=O)NC1CS(=O)(=O)C1 [3-P18, N-(1,1-dioxo-1lambda6-thietan-3-yl)prop-2-enamide] | 122.943
22 | COc1ccc2ccccc2c1C=C(C#N)C(=O)N1CCCC1 [8-P12, 3-(2-methoxynaphthalen-1-yl)-2-(pyrrolidine-1-carbonyl)prop-2-enenitrile] | 74.0249

Row | SMILES | % of control remaining [%]
23 | Cc1ccc(S(=O)(=O)N(C)C)cc1NC(=O)C(C)Cl (centres unmarked) [4-I06, 2-chloro-N-[5-(dimethylsulfamoyl)-2-methylphenyl]propanamide] | 102.144
24 | O=C(CCl)N1CCc2sccc2C1c1cccs1 (centres unmarked) [4-L20, 2-chloro-1-[4-(thiophen-2-yl)-4H,5H,6H,7H-thieno[3,2-c]pyridin-5-yl]ethan-1-one] | 116.627
25 | Cc1ccc(C=C(C#N)C(N)=O)c(C)c1 [9-M04, 2-cyano-3-(2,4-dimethylphenyl)prop-2-enamide] | 128.539
26 | C=CC(=O)Nc1ccc2c(c1)SCC(=O)N2 [1-C22, N-(3-oxo-3,4-dihydro-2H-1,4-benzothiazin-7-yl)prop-2-enamide] | 112.879
27 | O=C(CCl)Nc1cc2c(cc1[N+](=O)[O-])OCCCO2 [4-O05, 2-chloro-N-(8-nitro-3,4-dihydro-2H-1,5-benzodioxepin-7-yl)acetamide] | 89.1853
28 | C=CC(=O)Nc1ccc2occc2c1 [3-H14, N-(1-benzofuran-5-yl)prop-2-enamide] | 68.9595
29 | C[C@H](NC(=O)CCl)C(=O)N1CCCCC1 [7-L14, 2-chloro-N-[(2S)-1-oxo-1-(piperidin-1-yl)propan-2-yl]acetamide] | 84.7724
30 | C=CC(=O)N1CCCC(CS(=O)(=O)NC)C1 (centres unmarked) [2-E18, N-methyl-1-[1-(prop-2-enoyl)piperidin-3-yl]methanesulfonamide] | 117.668
31 | C=CC(=O)NCc1cnc(N2CCOCC2)s1 [1-M03, N-{[2-(morpholin-4-yl)-1,3-thiazol-5-yl]methyl}prop-2-enamide] | 100.571
32 | C=CC(=O)N(C)CC(=O)N1CCCCC1c1nc(C)no1 (centres unmarked) [3-K17, N-methyl-N-{2-[2-(3-methyl-1,2,4-oxadiazol-5-yl)piperidin-1-yl]-2-oxoethyl}prop-2-enamide] | 125.033
33 | COc1ccc2[nH]cc(C3=CCN(C(=O)C=CCN(C)C)CC3)c2c1 [10-F03, 4-(dimethylamino)-1-[4-(5-methoxy-1H-indol-3-yl)-1,2,3,6-tetrahydropyridin-1-yl]but-2-en-1-one] | 87.8125
34 | C=CC(=O)NCCn1nc(C)cc1C [3-M13, N-[2-(3,5-dimethyl-1H-pyrazol-1-yl)ethyl]prop-2-enamide] | 91.946
35 | C=CC(=O)N(C)c1ccccc1C(=O)NC [2-O18, N-methyl-2-(N-methylprop-2-enamido)benzamide] | 115.231
36 | N#CC(C(=O)NC1CCCCC1)=C1N=C(N)c2ccccc21 [9-N06, 2-(3-amino-1H-isoindol-1-ylidene)-2-cyano-N-cyclohexylacetamide] | 100.375
37 | COCCNC(=O)C(C#N)=Cc1c(Cl)cccc1Cl [8-O13, 2-cyano-3-(2,6-dichlorophenyl)-N-(2-methoxyethyl)prop-2-enamide] | 150.373
38 | O=C(CCl)NC1CCCc2c1cnn2Cc1ccccc1 (centres unmarked) [7-F20, N-(1-benzyl-4,5,6,7-tetrahydro-1H-indazol-4-yl)-2-chloroacetamide] | 99.2151
39 | COc1cccc(NC(=O)C(C#N)=Cc2cccc(Cl)c2Cl)c1 [8-F06, 2-cyano-3-(2,3-dichlorophenyl)-N-(3-methoxyphenyl)prop-2-enamide] | 81.3278
40 | COC(=O)c1c(C(=O)CCl)c(C)n(C2CC2)c1C [10-H03, methyl 4-(2-chloroacetyl)-1-cyclopropyl-2,5-dimethyl-1H-pyrrole-3-carboxylate] | 97.1875
41 | COc1ccc(C=C(C#N)C(=O)Nc2ccccc2OC)cc1O [8-J19, 2-cyano-3-(3-hydroxy-4-methoxyphenyl)-N-(2-methoxyphenyl)prop-2-enamide] | 100.249
42 | CC(Cl)C(=O)c1c(N)n(C)c(=O)n(C)c1=O (centres unmarked) [10-F22, 6-amino-5-(2-chloropropanoyl)-1,3-dimethyl-1,2,3,4-tetrahydropyrimidine-2,4-dione] | 118.75
43 | C=CC(=O)N(C)CC(=O)N1CCC(c2nc(-c3ccccc3)n[nH]2)CC1 [2-H20, N-methyl-N-{2-oxo-2-[4-(3-phenyl-1H-1,2,4-triazol-5-yl)piperidin-1-yl]ethyl}prop-2-enamide] | 132.985
44 | N#CC(=Cc1cnn(Cc2ccccc2)c1)C(=O)Nc1nccs1 [9-M03, 3-(1-benzyl-1H-pyrazol-4-yl)-2-cyano-N-(1,3-thiazol-2-yl)prop-2-enamide] | 106.667
